Drawing on paper PMC9911399, “Two distinct binding modes provide the RNA-binding protein RbFox with extraordinary sequence specificity”, this text covers binding signal for 20 molecules.

Positions count from the first letter of the chain named. The list shows a part of the results.

T1: RBFOX1 RRM RbFoxmut (Fox-RRM*) (Homo sapiens, UniProt Q9NWB1 109-208, R118D;E147R;N151S;E152T)
T1 sequence: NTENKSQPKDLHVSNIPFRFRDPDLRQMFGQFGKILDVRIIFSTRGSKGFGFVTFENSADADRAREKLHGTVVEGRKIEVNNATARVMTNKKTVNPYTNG

B1: AAACGUG (DNA:RNA)
RNA: GGGAGACCGGAAUUCAGAUUGUCCAAACGUGUUAAAUCCCGUCGUAGCCACCA
DNA 1: CAATCTGAATTCCGGTCTCCC
DNA 2: TGGTGGCTACGACGGGATT
B2: UAUGGCG (DNA:RNA)
RNA: B1 RNA with A25U, A27U, C28G, U30C
DNA 1: CAATCTGAATTCCGGTCTCCC
DNA 2: TGGTGGCTACGACGGGATT
B3: AAAAAGU (DNA:RNA)
RNA: B1 RNA with C28A, G29A, U30G, G31U
DNA 1: CAATCTGAATTCCGGTCTCCC
DNA 2: TGGTGGCTACGACGGGATT
B4: UUAAAAU (DNA:RNA)
RNA: B1 RNA with A25U, A26U, C28A, G29A, U30A, G31U
DNA 1: CAATCTGAATTCCGGTCTCCC
DNA 2: TGGTGGCTACGACGGGATT
B5: AAGGUGC (DNA:RNA)
RNA: B1 RNA with A27G, C28G, G29U, U30G, G31C
DNA 1: CAATCTGAATTCCGGTCTCCC
DNA 2: TGGTGGCTACGACGGGATT
B6: UUCGGGG (DNA:RNA)
RNA: B1 RNA with A25U, A26U, A27C, C28G, U30G
DNA 1: CAATCTGAATTCCGGTCTCCC
DNA 2: TGGTGGCTACGACGGGATT
B7: UGAGGCC (DNA:RNA)
RNA: B1 RNA with A25U, A26G, C28G, U30C, G31C
DNA 1: CAATCTGAATTCCGGTCTCCC
DNA 2: TGGTGGCTACGACGGGATT
B8: UACUUCA (DNA:RNA)
RNA: B1 RNA with A25U, A27C, C28U, G29U, U30C, G31A
DNA 1: CAATCTGAATTCCGGTCTCCC
DNA 2: TGGTGGCTACGACGGGATT
B9: AGUUUUU (DNA:RNA)
RNA: B1 RNA with A26G, A27U, C28U, G29U, G31U
DNA 1: CAATCTGAATTCCGGTCTCCC
DNA 2: TGGTGGCTACGACGGGATT
B10: GGAACAA (DNA:RNA)
RNA: B1 RNA with A25G, A26G, C28A, G29C, U30A, G31A
DNA 1: CAATCTGAATTCCGGTCTCCC
DNA 2: TGGTGGCTACGACGGGATT
B11: CAAAACG (DNA:RNA)
RNA: B1 RNA with A25C, C28A, G29A, U30C
DNA 1: CAATCTGAATTCCGGTCTCCC
DNA 2: TGGTGGCTACGACGGGATT
B12: AAGAUAU (DNA:RNA)
RNA: B1 RNA with A27G, C28A, G29U, U30A, G31U
DNA 1: CAATCTGAATTCCGGTCTCCC
DNA 2: TGGTGGCTACGACGGGATT
B13: UGUAGGA (DNA:RNA)
RNA: B1 RNA with A25U, A26G, A27U, C28A, U30G, G31A
DNA 1: CAATCTGAATTCCGGTCTCCC
DNA 2: TGGTGGCTACGACGGGATT
B14: UCAUCCC (DNA:RNA)
RNA: B1 RNA with A25U, A26C, C28U, G29C, U30C, G31C
DNA 1: CAATCTGAATTCCGGTCTCCC
DNA 2: TGGTGGCTACGACGGGATT
B15: UAAGUUG (DNA:RNA)
RNA: B1 RNA with A25U, C28G, G29U
DNA 1: CAATCTGAATTCCGGTCTCCC
DNA 2: TGGTGGCTACGACGGGATT
B16: CCCUGUA (DNA:RNA)
RNA: B1 RNA with A25C, A26C, A27C, C28U, G31A
DNA 1: CAATCTGAATTCCGGTCTCCC
DNA 2: TGGTGGCTACGACGGGATT
B17: GAGCCAU (DNA:RNA)
RNA: B1 RNA with A25G, A27G, G29C, U30A, G31U
DNA 1: CAATCTGAATTCCGGTCTCCC
DNA 2: TGGTGGCTACGACGGGATT
B18: CGGUAGA (DNA:RNA)
RNA: GGGAGACCGGAAUUCAGAUUGUCCCGGUAGAUUAAAUCCCGUCGUAGCCACCA
DNA 1: CAATCTGAATTCCGGTCTCCC
DNA 2: TGGTGGCTACGACGGGATT
B19: AGGUUGC (DNA:RNA)
RNA: B18 RNA with C25A, A29U, A31C
DNA 1: CAATCTGAATTCCGGTCTCCC
DNA 2: TGGTGGCTACGACGGGATT
B20: AUGGGCG (DNA:RNA)
RNA: B1 RNA with A26U, A27G, C28G, U30C
DNA 1: CAATCTGAATTCCGGTCTCCC
DNA 2: TGGTGGCTACGACGGGATT

The assay has as its target T1, RBFOX1 RRM RbFoxmut (Fox-RRM*). As to the kind of experiment: EMSA; HiTS-Eq, 1 nM pool, 10 min; buffer printed only for the single-RNA assays: 10 mM Tris pH 7.5, 150 mM NaCl, 3.4 mM EDTA, 0.001% NP-40, 30 C. To be noted: tags: His6 N-terminal (pET28a); label: 5' 32P. Put shortly: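 These values rest on relative association constants, computed from read-count changes of each RNA species versus the control reaction and normalised to the cognate motif. Reads came from free RNA recovered by 8% native PAGE after purified RbFox RRM (wild type or mutant) at increasing concentrations was equilibrated for 10 min in 50 µL with 1 nM of a 5′-radiolabelled pool with 7 randomized nucleotides and DNA-annealed flanks.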
For B1, the binding signal was 0.138 KA relative to UGCAUGU.
Turning to B2, the binding signal is 0.116 KA relative to UGCAUGU.
As to B3, the binding signal is 0.115 KA relative to UGCAUGU.
B4: the binding signal is 0.0612 KA relative to UGCAUGU.
As to B5, the binding signal was 0.103 KA relative to UGCAUGU.
As for B6, the binding signal was 0.0513 KA relative to UGCAUGU.
B7: the binding signal is 0.143 KA relative to UGCAUGU.
Take B8: the binding signal was 0.0921 KA relative to UGCAUGU.
For B9 the value was 0.102 KA relative to UGCAUGU; for B10, 0.0966 KA relative to UGCAUGU; for B11, 0.0837 KA relative to UGCAUGU.
For B12 the value was 0.106 KA relative to UGCAUGU.
For B13, the binding signal was 0.0682 KA relative to UGCAUGU.
Regarding B14, the binding signal is 0.0352 KA relative to UGCAUGU.
On to B15, for which the binding signal is 0.141 KA relative to UGCAUGU.
For B16 the value was 0.201 KA relative to UGCAUGU; for B17, 0.0689 KA relative to UGCAUGU; for B18, 0.126 KA relative to UGCAUGU.
Regarding B19, the binding signal is 0.201 KA relative to UGCAUGU.
On to B20, for which the binding signal is 0.171 KA relative to UGCAUGU.
